Assay results published in patent publication EP0104070A2, “Fungicidal N-phenylcarbamates” (priority 1982, dated 1984).

What was measured:
[1] = system: mixed spore suspension of the drug-resistant and drug-sensitive strain of Sphaerotheca fuliginea; assay: Preventive effect on powdery mildew of cucumber, mixed inoculum, sole and combined use (Experiment 10); details: cucumber seedlings, sole use, mixed resistant and sensitive strains
[2] = system: mixed spore suspension of the drug-resistant and drug-sensitive strain of Botrytis cinerea; assay: Preventive effect on gray mold of tomato, mixed inoculum, sole and combined use (Experiment 11); details: tomato seedlings, sole use, mixed resistant and sensitive strains
Protocol: Preventive effect on gray mold of tomato (Botrytis cinerea):-
Then, the seedlings were inoculated with a mixed spore suspension of the drug-resistant and drug-sensitive strain of Botrytis cinerea by spraying and placed at 20°C in a room of high humidity for 5 days.

SMILES	Prevention value (%) ([1]; 100 ppm active ingredient)	Prevention value (%) ([1]; 500 ppm active ingredient)	Prevention value (%) ([2]; 20 ppm active ingredient)	Prevention value (%) ([2]; 100 ppm active ingredient)	Prevention value (%) ([1]; 20 ppm active ingredient)	Prevention value (%) ([2]; 10 ppm active ingredient)	Prevention value (%) ([2]; 50 ppm active ingredient)
c1ccc2[nH]c(-c3cscn3)nc2c1 [B]	8%	42%	–	–	–	–	–
CC(C)NC(=O)N1CC(=O)N(c2cc(Cl)cc(Cl)c2)C1=O [Compound J]	–	–	14%	42%	–	–	–
c1coc(-c2nc3ccccc3[nH]2)c1 [D]	0%	34%	–	–	–	–	–
CCCCNC(=O)n1c(NC(=O)OC)nc2ccccc21 [A]	42%	–	–	–	10%	–	–
CCOC(=O)NC(=S)Nc1ccccc1NC(=S)NC(=O)OCC [F]	42%	–	–	–	6%	–	–
COC(=O)Nc1nc2ccccc2[nH]1 [C]	42%	–	–	–	10%	–	–
CC12CC1(C)C(=O)N(c1cc(Cl)cc(Cl)c1)C2=O (centres unmarked) [Compound I]	–	–	16%	46%	–	–	–
CCOc1c(C)cc(NC(=S)OCCF)cc1C [Compound No. 9]	42%	–	–	–	0%	0%	42%
CCOc1c(Cl)cc(NC(=S)OC(C)C)cc1COC [Compound No. 14, (3-chloro-4-ethoxy-5-methoxymethyl)thiocarbanilic acid O-isopropyl ester]	42%	–	–	–	0%	0%	44%
C=CC1(C)OC(=O)N(c2cc(Cl)cc(Cl)c2)C1=O (centres unmarked) [Compound K]	–	–	8%	40%	–	–	–
CCOc1c(Cl)cc(NC(=S)OC)cc1COC [Compound No. 13]	44%	–	–	–	0%	0%	40%
COC(=O)NC(=S)Nc1ccccc1NC(=S)NC(=O)OC [E]	44%	–	–	–	8%	–	–
CCOC(=O)C1(C)OC(=O)N(c2cc(Cl)cc(Cl)c2)C1=O (centres unmarked) [L]	–	–	8%	38%	–	–	–
